Experimental data reported in publication PMC10726135.
Some of the results follow. At the low end of the ranking, values are background and their order means little. The protein was read in a cell extract, so binding may be indirect.

biological target: T1, HNF4alpha8 (COS-7 nuclear extract) (UniProt P41235-5); experiment: protein-binding microarray; settings: COS-7 nuclear extract on double-stranded Agilent 4x180k PBM; binding buffer, salt, pH and temperature not given; high values mean tight binding; double strand, one strand shown; sequences stand for … in …GCCTAGGGAGATTAGAGTATCGGTCGA
T1 sequence: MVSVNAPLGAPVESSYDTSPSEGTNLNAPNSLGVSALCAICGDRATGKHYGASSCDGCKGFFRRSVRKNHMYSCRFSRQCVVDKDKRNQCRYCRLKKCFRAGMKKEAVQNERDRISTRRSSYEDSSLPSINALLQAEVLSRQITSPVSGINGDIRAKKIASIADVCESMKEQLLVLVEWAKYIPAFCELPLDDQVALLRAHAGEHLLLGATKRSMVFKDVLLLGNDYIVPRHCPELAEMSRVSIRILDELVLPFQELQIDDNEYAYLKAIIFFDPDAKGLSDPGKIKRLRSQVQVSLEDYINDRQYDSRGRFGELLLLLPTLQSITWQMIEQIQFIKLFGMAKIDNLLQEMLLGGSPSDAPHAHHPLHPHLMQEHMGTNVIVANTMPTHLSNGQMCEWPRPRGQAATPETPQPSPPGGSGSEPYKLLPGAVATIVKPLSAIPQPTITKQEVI

| Sequence | binding signal (log2 normalized intensity) |
| --- | --- |
| CATCATAGTTATTCAGTACAGACTTGTGTA | 1.47 |
| ATGAATACATGAGTGATCCTGAAAACAAAT | -1.24 |
| ATCAAAGGCCTTCCTATCTCTACTTGCCGA | -1.31 |
| ACTAAAGGTTAAACATGTACTCTGTACTCC | 3.43 |
| TCCCCACCCGGTGTGCGTGGGTGGGAAATC | 1.15 |
| TTTGCAGAGGGAAAGCGAGAGAGCCTGGAC | -1.42 |
| TCAGGTCCAAGGAACCTCACGCGCTCCCTG | -1.34 |
| ATCAAGATCACTGCCTTGGAGGCACTCCCA | -1.29 |
| AAAAGCCGGGGAAAGGGAAAAAGGGAGATA | -1.36 |
| GGGGCCTTGCAATGAGGCGACATCAAAGCA | -1.25 |
| ATTCCCTCTAATCTGGGACAAGGGGGAGGA | -1.42 |
| AGACTCCTGCATATCCTGACTGCTGACCTT | 3.85 |
| TTCCTTATCTGTAAAATGGACATAGTAACA | 1.28 |
| GTGTAAACTTTGCAGCAGATAATTACCTGG | -1.3 |
| AGGGGTTAGGTAAACATTTGTTGAGTGAGT | 1.23 |
| CAGCATAGGGCCACTTTGTCCTTCACTTGT | 0.812 |
| GGTTCCAGCATGGACTTCACAGCCTGTTAG | 0.147 |
| AACCAAATGCACACACAATAAGGACTTTGG | 4.15 |
| AAGTCAATGAGCATTTCACAATTCGTTCAT | -1.22 |
| CCACAGGAGGCCCCATCGCACGGCAGAACT | -1.22 |
| CCAGCAGGGGCTGCTGGGAGTTGTAGTTTT | -1.27 |
| AACCTGGGAAAACTTACGCACATTACTTTG | -1.26 |
| GTCCAGAGGCTCCAAAGGACACTCCGCTTG | -1.42 |
| GCCATGTTCTCTAGAAACAGAGCCCAAGGC | -1.35 |

| Sequence | binding signal (log2 normalized intensity) |
| --- | --- |
| CTCCTGGCTTCTGGACTATGCCTTGAACTT | 3.09 |
| AAAATATCACAATCCTTAAGCAGCAGATAA | -1.19 |
| ACCTTCGAGCTTCACCTTTGTCCTCTCTCC | 4.79 |
| AACTTACCCACCTGCTGCACAACGACCCTT | 3.51 |
| AAGCCCTTCTTCTGGAGCCTCAGTAAGTTT | -1.04 |
| CAGGAGACGTAGAGATAAGGTCTTCTACAG | -1.41 |
| CTCATTTATGGAGGAATTTGGACTTTTACT | 5.31 |
| ACCTGCCCTGAGTCCAGCCTTCCTGTTCAA | 0.512 |
| TGGTCACTTGTAAGATACTGAAATGCCAAA | -0.819 |
| CTGCCAAAGTTCAGCCTTGGGGCCATTCCA | 1.13 |
| AGCAACTATAAAACAGGAAAAAGGGACAAA | -1.22 |
| TAGCTGTTGGAATTTGGTCACAGAAAGTGA | 2.3 |
| ATGACACAGAGTGGAAAATAAATATTTGTT | -1.24 |
| GACTCTAGATTGTTTGTTCTTGCTACCTAC | -0.907 |
| AAGGTCTCAAGGCCTTGGCTTGGAACTGAC | -0.344 |
| CATTAAAACAACCCAGAGAATGCTAGACAA | -1.34 |
| ACTAGACTGCCTCTTACAACGAGGTGCCAG | -1.39 |
| TGGTGACCAGACTACCTCTTTAGGCTGGAC | -0.0334 |
| TATTCCAGGCACAAGAATGGTCATTCTCTG | 0.0296 |
| AATACTCCAGTCATTGTACAAACACATACC | -0.533 |
| AGGAAAACGGAGACAGAAACTGTTTCCAAT | -1.21 |
| AGGCCAGCTCATAGGGATCAGATAAGAAGT | -0.663 |
| GACCAAAAGATATTTGCTGCTGACATCTCA | -1.33 |
| TCGTAGGCAGGGCCAGATAAAGCAGGTTGT | -0.948 |

| Sequence | binding signal (log2 normalized intensity) |
| --- | --- |
| TTGGACTTTGTACATTCCAAATACGATAAT | 5.9 |
| TTTGCTTTCTTGGAGGTTAACATTTGACAA | 1.64 |
| TCCTGGTTGGCAAACAAAAAGCTCTGCCTA | 0.00252 |
| GGCAAAACTGTCACAAGAAAGGCAGAAAAC | -1.41 |
| GCAGAAGGCAACAGCTCTGGAGGATTTGGG | -1.32 |
| AAAGATGGGGATATAATCATTCATGGGCCA | -0.524 |
| AACGGAGACAGAAACTGTTTCCAATAGGTT | -1.24 |
| TAAGCCTCTGACTGTTGCATCAAACAGCTT | -1.42 |
| GCTCAATCAAGGACTGGGCTGGAACACAAA | -1.32 |
| AGTCTGCTCAAGTCTTTTAGAATGTGGATG | 1.71 |
| CTGTATTTAACTTTTGGGATCAGCAATGCT | -0.249 |
| CTTTATCAACTAAGACAGACCCAAAGGTTA | 1.69 |
| GCTGGGCCACACTGGTTCCTGCACCCGGGC | -1.33 |
| CCACTGGAGACTTCAAACGGGAAGCGAGGC | -1.2 |
| CAAACAATGAGGACGTGTGTGTTCTGGACT | 3.02 |
| CAGGCCTCAGAGATAATAGGTTGTAAAGTG | 1.27 |
| TATCCTGTGTTCCACAGTCAAGGCCAAAGG | 3.54 |
| GCCTCTCTGTGCTGGAACTTGCTTCCTTAT | 1.37 |
| GAAAAGCAAGATTGGGAGCTGGGAGGAGCC | -1.36 |
| GAGCAGAGAAAATTCTAGATAACTCCAAGA | -0.996 |
| GGGGACGGAGAGCAGGGCGTGGACTTCGCT | 1.84 |
| GCATTGCTTCTGAAGGCTTAAGGGGAGGAT | -1.11 |
| AGTCCTCTTGTGGTAATCTCTTTTGTGTTA | 2.48 |
| CAGATGAAAGTAGTTGGGGATTGTGTAACA | 0.949 |

| Sequence | binding signal (log2 normalized intensity) |
| --- | --- |
| CTTGAGTCCAGGAGTGCAAAGCTGCTATGA | -0.723 |
| CCTGTTACCCACCTGATATTGCTGGCTCTC | -0.511 |
| TTGGATTTTTCCATATCTGTGTGCCTGTGG | 1.53 |
| CCCCAATTGCCAAGGGGGTGGTGAAATGGG | -1.31 |
| GACCCCTGTGGTACAGGCAGTGACTGGACC | 3.02 |
| AGTGGTCATTACCTCCCTGGGCATGTCTGC | 1.5 |
| CCTCCTGCCCTATGTCCTCCAGCTCTTGGG | 1.12 |
| TAATGCTGAACTTTAGCTCACTGTTGAACA | 1.07 |
| TTGAACTCACTGACTTCCATCAATGAAGCA | 0.0016 |
| CCAGTCCGAAGGTCCACCCGTCCGCTTGAT | 2.26 |
| GGGAGGCAAATCTCTTGGTCATGGAGGGAA | -0.984 |
| GAGATCCTGGGTTCGAATCCCAGCGGTGCC | -1.22 |
| TGAAAAGTGAACTGTCTGCTATGTGTATAT | 1.43 |
| GCACCCGTGGTTGATCAAAGGTTGGACTGA | 4.14 |
| TGGGAGCAAAGGTCAAGAGTTTTAAAGTAT | 5.47 |
| GAGAGCAGGTGATAAGGAACTGTTATCAAG | -0.911 |
| CCCAGATGCCCAGCAGAGGGAGCCGCTGTG | -1.21 |
| ATATTCTTTACATTTATTAGAACCTTATGT | 1.93 |
| GAACAGAGGGGTCTGAGCACATCACACAGG | -1.23 |
| CTGCTGGGTCAGTTTATCTAAGATTCCCCC | 3.43 |
| GTGAGGTCAGTTGATAAACAGATAACTGGG | -0.201 |
